# According to article PMC4336329 (PLoS ONE, 2015):
# Screen size: about 310,000 compounds; about 14,000 (4.5%) showed an effect of 50% or more. The effect is printed as a negative number. The list shows a part of the results.
# Target: human ether-à-go-go-related gene (hERG) potassium channel (human, UniProt Q12809)
# Experiment: primary screen, population patch clamp on CHO cells stably expressing hERG
# 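Note: peak tail current of the secondary pulse compared with the same well before compound.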
# human ether-à-go-go-related gene (hERG) potassium channel, sequence (Q12809 whole entry, looked up): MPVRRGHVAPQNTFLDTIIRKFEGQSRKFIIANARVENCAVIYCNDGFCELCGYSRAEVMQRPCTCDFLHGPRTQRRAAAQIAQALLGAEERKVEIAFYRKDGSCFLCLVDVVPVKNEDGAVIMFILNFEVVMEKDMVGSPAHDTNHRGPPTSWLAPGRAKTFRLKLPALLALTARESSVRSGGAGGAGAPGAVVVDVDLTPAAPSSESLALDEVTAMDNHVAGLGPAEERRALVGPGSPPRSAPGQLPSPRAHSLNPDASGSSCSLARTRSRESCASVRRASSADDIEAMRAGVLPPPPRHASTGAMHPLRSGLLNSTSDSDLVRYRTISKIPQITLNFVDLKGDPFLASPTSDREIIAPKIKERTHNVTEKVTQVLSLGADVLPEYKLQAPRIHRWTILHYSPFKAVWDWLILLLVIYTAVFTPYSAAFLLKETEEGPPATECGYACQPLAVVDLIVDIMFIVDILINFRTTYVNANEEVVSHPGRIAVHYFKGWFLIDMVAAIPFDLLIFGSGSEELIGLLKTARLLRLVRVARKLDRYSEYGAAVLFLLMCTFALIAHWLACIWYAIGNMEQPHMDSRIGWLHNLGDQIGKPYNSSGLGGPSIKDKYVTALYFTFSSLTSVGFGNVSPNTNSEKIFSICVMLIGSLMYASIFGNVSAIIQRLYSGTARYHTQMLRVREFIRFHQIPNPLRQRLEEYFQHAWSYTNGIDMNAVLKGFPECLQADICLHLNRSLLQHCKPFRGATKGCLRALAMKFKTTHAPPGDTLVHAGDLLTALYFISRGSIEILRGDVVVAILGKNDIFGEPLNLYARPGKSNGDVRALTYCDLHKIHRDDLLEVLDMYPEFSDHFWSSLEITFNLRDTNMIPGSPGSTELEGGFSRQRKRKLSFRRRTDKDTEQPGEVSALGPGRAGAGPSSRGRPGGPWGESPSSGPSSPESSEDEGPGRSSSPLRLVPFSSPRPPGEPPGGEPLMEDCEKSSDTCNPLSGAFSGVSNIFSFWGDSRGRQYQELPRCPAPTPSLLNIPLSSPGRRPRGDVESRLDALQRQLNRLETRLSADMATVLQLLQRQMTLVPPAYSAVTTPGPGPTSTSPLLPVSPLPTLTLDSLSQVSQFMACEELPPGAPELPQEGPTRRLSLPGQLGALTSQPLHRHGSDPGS
row,SMILES,"hERG current change (%, negative = inhibition) at 10uM [%]"
1,COc1ccc(C(c2sc3nc(C)nn3c2O)N2CCC3(CC2)OCCO3)cc1 (stereo not drawn),-2.74
2,O=C(COc1ccc(C(=S)N2CCOCC2)cc1)N1CCCC1,4.23
3,O=C(O)C1C2C=CC(C2)C1C(=O)Nc1ccccc1Br (stereo not drawn),12.5
4,CC(C)c1ccc(N(C(=O)CNC(=O)c2ccco2)C(C(=O)NC2CCCC2)c2ccncc2)cc1 (stereo not drawn),-6.92
5,CCNc1nc(SCC(=O)OC)nc(N2CCOCC2)n1,-21.7
6,N#C/C(=N\Nc1ccc(S(=O)(=O)N2CCCCCC2)cc1)C(N)=S,4.21
7,Cc1cccc(OC(=O)NCCOC(=O)N(O)c2ccc(Cl)cc2)c1,-14.4
8,COc1ccc(/C(O)=C2/C(=O)C(=O)N(CCN(C)C)C2c2ccc(F)cc2)cc1Cl (stereo not drawn),13.8
9,Cc1cc(Nc2cccc(F)c2)n2ncnc2n1,-4.7
10,CSC(=S)N/N=C/c1c[nH]c2ccccc12,12.3
11,Cc1ccc(C(=O)c2cc([N+](=O)[O-])ccc2N2CCOCC2)c(C)c1,-26.5
12,O=C(NCc1nc2ccccc2[nH]1)C1=C[C@@H](C2CC2)C[C@@H](OCc2ccc(CO)cc2)O1,9.06
13,O=C(CSc1ccc(-c2ccc(-n3cccn3)cc2)nn1)Nc1ccccc1F,17
14,COc1cc(OC)c2cc(C(=O)N/N=C/c3cccc(OC)c3O)[nH]c2c1,5.14
15,O=C(N1CCN(c2ccc(F)cc2)CC1)C1(c2cccs2)CCOCC1,-33
16,CC(OC(=O)C12CC3CC(CC(O)(C3)C1)C2)C(N)=O (stereo not drawn),14.7
17,O=c1cnnc(N/N=C/c2ccccn2)[nH]1,31.1
18,Cc1ccc(C(OCC(C)(C)C[N+](C)(C)C)c2ccccc2)cc1.[I-] (stereo not drawn),-36.7
19,O=C(NC(=S)Nc1ccccn1)c1ccc([N+](=O)[O-])cc1,-11.9
20,C=CCN1C(=O)N/C(=C/c2ccc(N3CCOCC3)o2)C1=O,5.46
21,O=C(NCC(c1ccco1)N1CCc2ccccc2C1)c1ccc(Cl)cc1 (stereo not drawn),-47.8
22,O=C(CSc1cn[nH]n1)Nc1ccc(O)c(C(=O)O)c1,10.9
23,C=CCn1c(Cn2nnc3ccccc32)nnc1SCC(=O)N/N=C/c1cc(Br)cc(OC)c1O,13.5
24,COc1ccc(CCNCc2c(OC)ccc3ccccc23)cc1.O=C(O)C(=O)O,-44.9
